{"source": "paper PMC12820563", "about": "“FoxP3 forms a head-to-head dimer in vivo and stabilizes its multimerization on adjacent microsatellites”", "note": "The other results are listed elsewhere or left out."}
{"molecular_target": "T1, MBP-FoxP1dN (Mus musculus, UniProt P58462 326-579)", "T1 sequence": "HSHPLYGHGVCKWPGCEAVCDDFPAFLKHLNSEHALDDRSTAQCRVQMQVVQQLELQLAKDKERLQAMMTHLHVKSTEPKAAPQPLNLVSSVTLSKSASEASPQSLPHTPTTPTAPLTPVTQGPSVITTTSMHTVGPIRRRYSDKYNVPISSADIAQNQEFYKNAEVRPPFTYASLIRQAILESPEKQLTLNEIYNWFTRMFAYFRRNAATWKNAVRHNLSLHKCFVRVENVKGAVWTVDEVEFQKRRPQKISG", "assay": "PD-seq (MBP pull-down with sequencing); 20 mM Tris-HCl pH 7.5, 100 mM NaCl, 1.5 mM MgCl2, 0.4 uM protein, 0.1 uM dsDNA library, 30 min, room temperature, amylose pull-down; high values mean tight binding", "details": "protein: recombinant; tags: His6-MBP; chain copies: 2; dsDNA, one strand shown", "summary_of_the_method": "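A fragment of mouse FoxP3 or FoxP1 without its N-terminus, carrying a His6-MBP tag and produced in E. coli, was combined at 0.4 µM with a 0.1 µM degenerate double-stranded DNA library filled in with Klenow. The mixture sat for 30 min at room temperature in Tris pH 7.5 buffer containing NaCl and MgCl2. Protein–DNA complexes were captured on amylose resin, washed three times, and the DNA was freed with proteinase K, barcoded by PCR and sequenced on Illumina. Binding is expressed as reads-per-million enrichment of pull-down over input, with replicates pooled.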"}
{"sequence": "GATGATTGTTCTCCCAGCTGATGAATTGCATTATTCGAGTAAACAAATTTTCCTAATCTTTCTGTTCAAGCGCCATCTAC", "binding signal": "1.62 RPM ratio (pull-down/input)"}
{"sequence": "GATGATTGTTCTCCCAGCTGATGAATTGTGAGCCTCGAGTAAACAAATTTTCCTAATCTTTCTGTTCAAGCGCCATCTAC", "binding signal": "0.988 RPM ratio (pull-down/input)"}
{"sequence": "GATGATTGTTCTCCCAGCTGATGAATTGGTCGAGTCGAGTAAACAAATTTTCCTAATCTTTCTGTTCAAGCGCCATCTAC", "binding signal": "0.835 RPM ratio (pull-down/input)"}
{"sequence": "GATGATTGTTCTCCCAGCTGATGAATTTTCGTCGTCGAGTAAACAAATTTTCCTAATCTTTCTGTTCAAGCGCCATCTAC", "binding signal": "0.939 RPM ratio (pull-down/input)"}
{"sequence": "GATGATTGTTCTCCCAGCTGATGAATTATGTGTTTCGAGTAAACAAATTTTCCTAATCTTTCTGTTCAAGCGCCATCTAC", "binding signal": "1.51 RPM ratio (pull-down/input)"}
{"sequence": "GATGATTGTTCTCCCAGCTGATGAATTATGACTTTCGAGTAAACAAATTTTCCTAATCTTTCTGTTCAAGCGCCATCTAC", "binding signal": "1.01 RPM ratio (pull-down/input)"}
{"sequence": "GATGATTGTTCTCCCAGCTGATGAATTTAATAATTCGAGTAAACAAATTTTCCTAATCTTTCTGTTCAAGCGCCATCTAC", "binding signal": "1.1 RPM ratio (pull-down/input)"}
{"sequence": "GATGATTGTTCTCCCAGCTGATGAATTCGTTTGCTCGAGTAAACAAATTTTCCTAATCTTTCTGTTCAAGCGCCATCTAC", "binding signal": "0.977 RPM ratio (pull-down/input)"}
{"sequence": "GATGATTGTTCTCCCAGCTGATGAATTCCCTTTATCGAGTAAACAAATTTTCCTAATCTTTCTGTTCAAGCGCCATCTAC", "binding signal": "0.868 RPM ratio (pull-down/input)"}
{"sequence": "GATGATTGTTCTCCCAGCTGATGAATTGTATTGATCGAGTAAACAAATTTTCCTAATCTTTCTGTTCAAGCGCCATCTAC", "binding signal": "2.22 RPM ratio (pull-down/input)"}
{"sequence": "GATGATTGTTCTCCCAGCTGATGAATTCGAGGATTCGAGTAAACAAATTTTCCTAATCTTTCTGTTCAAGCGCCATCTAC", "binding signal": "0.805 RPM ratio (pull-down/input)"}
{"sequence": "GATGATTGTTCTCCCAGCTGATGAATTTTGGAACTCGAGTAAACAAATTTTCCTAATCTTTCTGTTCAAGCGCCATCTAC", "binding signal": "0.835 RPM ratio (pull-down/input)"}
{"sequence": "GATGATTGTTCTCCCAGCTGATGAATTTTAGCGGTCGAGTAAACAAATTTTCCTAATCTTTCTGTTCAAGCGCCATCTAC", "binding signal": "0.835 RPM ratio (pull-down/input)"}
{"sequence": "GATGATTGTTCTCCCAGCTGATGAATTTCGCTGCTCGAGTAAACAAATTTTCCTAATCTTTCTGTTCAAGCGCCATCTAC", "binding signal": "0.823 RPM ratio (pull-down/input)"}
{"sequence": "GATGATTGTTCTCCCAGCTGATGAATTTGATACTTCGAGTAAACAAATTTTCCTAATCTTTCTGTTCAAGCGCCATCTAC", "binding signal": "0.987 RPM ratio (pull-down/input)"}
{"sequence": "GATGATTGTTCTCCCAGCTGATGAATTCATCTGCTCGAGTAAACAAATTTTCCTAATCTTTCTGTTCAAGCGCCATCTAC", "binding signal": "0.781 RPM ratio (pull-down/input)"}
{"sequence": "GATGATTGTTCTCCCAGCTGATGAATTATGGAAGTCGAGTAAACAAATTTTCCTAATCTTTCTGTTCAAGCGCCATCTAC", "binding signal": "0.876 RPM ratio (pull-down/input)"}
{"sequence": "GATGATTGTTCTCCCAGCTGATGAATTCCTCCGGTCGAGTAAACAAATTTTCCTAATCTTTCTGTTCAAGCGCCATCTAC", "binding signal": "0.756 RPM ratio (pull-down/input)"}
{"sequence": "GATGATTGTTCTCCCAGCTGATGAATTGTTCCCGTCGAGTAAACAAATTTTCCTAATCTTTCTGTTCAAGCGCCATCTAC", "binding signal": "1.04 RPM ratio (pull-down/input)"}
{"sequence": "GATGATTGTTCTCCCAGCTGATGAATTACGCGACTCGAGTAAACAAATTTTCCTAATCTTTCTGTTCAAGCGCCATCTAC", "binding signal": "0.92 RPM ratio (pull-down/input)"}
{"sequence": "GATGATTGTTCTCCCAGCTGATGAATTTGTCCCGTCGAGTAAACAAATTTTCCTAATCTTTCTGTTCAAGCGCCATCTAC", "binding signal": "1.01 RPM ratio (pull-down/input)"}
{"sequence": "GATGATTGTTCTCCCAGCTGATGAATTAAGAGAATCGAGTAAACAAATTTTCCTAATCTTTCTGTTCAAGCGCCATCTAC", "binding signal": "0.949 RPM ratio (pull-down/input)"}
{"sequence": "GATGATTGTTCTCCCAGCTGATGAATTAAACTGATCGAGTAAACAAATTTTCCTAATCTTTCTGTTCAAGCGCCATCTAC", "binding signal": "0.977 RPM ratio (pull-down/input)"}
{"sequence": "GATGATTGTTCTCCCAGCTGATGAATTTATCGCGTCGAGTAAACAAATTTTCCTAATCTTTCTGTTCAAGCGCCATCTAC", "binding signal": "1.12 RPM ratio (pull-down/input)"}
{"sequence": "GATGATTGTTCTCCCAGCTGATGAATTGCGCCTATCGAGTAAACAAATTTTCCTAATCTTTCTGTTCAAGCGCCATCTAC", "binding signal": "1.08 RPM ratio (pull-down/input)"}
{"sequence": "GATGATTGTTCTCCCAGCTGATGAATTTAAAATCTCGAGTAAACAAATTTTCCTAATCTTTCTGTTCAAGCGCCATCTAC", "binding signal": "0.867 RPM ratio (pull-down/input)"}
{"sequence": "GATGATTGTTCTCCCAGCTGATGAATTCTGGTGATCGAGTAAACAAATTTTCCTAATCTTTCTGTTCAAGCGCCATCTAC", "binding signal": "0.929 RPM ratio (pull-down/input)"}
{"sequence": "GATGATTGTTCTCCCAGCTGATGAATTACATTTATCGAGTAAACAAATTTTCCTAATCTTTCTGTTCAAGCGCCATCTAC", "binding signal": "1.52 RPM ratio (pull-down/input)"}
{"sequence": "GATGATTGTTCTCCCAGCTGATGAATTAATATCCTCGAGTAAACAAATTTTCCTAATCTTTCTGTTCAAGCGCCATCTAC", "binding signal": "0.937 RPM ratio (pull-down/input)"}
{"sequence": "GATGATTGTTCTCCCAGCTGATGAATTCACTTCTTCGAGTAAACAAATTTTCCTAATCTTTCTGTTCAAGCGCCATCTAC", "binding signal": "0.894 RPM ratio (pull-down/input)"}
{"sequence": "GATGATTGTTCTCCCAGCTGATGAATTTCACTCATCGAGTAAACAAATTTTCCTAATCTTTCTGTTCAAGCGCCATCTAC", "binding signal": "0.918 RPM ratio (pull-down/input)"}
